Measurements: patent US12551573B2, “Compositions and methods for the targeting of PCSK9” (Scribe Therapeutics Inc., priority 2022, dated 2026)
Read-outs that look alike come from different tables or passages of the source.

B1: DOMAIN_12544 (protein, listed as Gorilla sp.)
chain: AQESITLEDVAVDFTWEEWQLLGAAQKDLYRDVMLENYSNLVAVGYQASKPDALFKLEQGEQPWTIEDGIHSGACSDIWKV
B2: DOMAIN_12576 (protein, listed as Gorilla sp.)
chain: FQEPVTFEDVAVYFTQNEWASLHPTQRALYREVMLENYANVTSLSAFPFPKPDLIFQLEQGEAAWGPDPWTLAGGEALRGM
B3: DOMAIN_12591 (protein, listed as Bos indicus)
chain: HSEGRLTFQDVAIDFTQEEWECLDPGQRKLYRDVMVENYRNLASLGLVSKVDLVTFLELLKDPRNIRRMKTTAIYPAVSPQ
B4: DOMAIN_12598 (protein)
chain: EPVTFEDVAVYFSQNQWASLDSAQRALYREVMLENYANVASLVSPFPRPDLISQLERGEAPWDPNPWEAEDLRGICPGGER
modifications: Muntiacus muntjak
B5: DOMAIN_12599 (protein)
chain: AQVCVTFDDVAVTFTQEEWGHLDPAQRTLYQEVMLETCGLLMSLGCPVPRPELIYQLEHGQELWTVKRDLSGSTCPVDKGK
modifications: Muntiacus muntjak
B6: DOMAIN_12630 (protein, listed as Macaca fascicularis)
chain: MVSFEDVAVLLSQEEWDCLIPAQRGLYRDVMLETYGNLVSLGLQASKPDVISRLEQGDKPWTPHILRTQISWSWRHKRECY
B7: DOMAIN_17432 (protein, listed as Otolemur garnettii)
chain: LQELLTFKDVSVEFSVDEWACLDPAQQTLYRDVMLENYRHLVFLGLTPSKPHLITCLEQSKEPWKVKAYQTVVKHPAVSNH
B8: DOMAIN_12646 (protein, listed as Myotis lucifugus)
chain: DAVTFPDVAIDFSRDEWECLNLAQRTLYRKVMLENYRTLVSVGLCVSKPDVISLLEQGEEPWVTDGEMAGGLCPHSECVWM
B9: DOMAIN_12686 (protein, listed as Phascolarctos cinereus)
chain: AQELVTFQDVAVDFTQEEWGLLDHPQKELYKEVMLENARNALSLGLPVPREGLISHFGQREAPWMMELEDPRTSYPVSQKL
B10: DOMAIN_12698 (protein, listed as Phascolarctos cinereus)
chain: GEEAVTFRDVALDFTWEEWGCLSAAQRELYKDVMLENYRNLVSLAGLPGPKPGLISWLEGEEEPHPWDSLVHAARSTSLSK
B11: DOMAIN_12704 (protein, listed as Myotis lucifugus)
chain: AQEPLTFHDVAVDFTWEEWQLLDPEQKDLYRDVMLETYSHLVSVGYEASKPDILSKLDHGEAPWTVAGEIHCGTHSEIWKR
B12: DOMAIN_12712 (protein)
chain: FQASVVFEDVAVKFTPEEWALLDRGQRKLYRDVMLETCRNLSSVEKQKFHSNGDLTRMQEGLLRSPLVESVCERIEGDQCG
modifications: Puma concolor
B13: DOMAIN_12728 (protein, listed as Lynx canadensis)
chain: AHRSLMFSDVSIVFSQEEWEYLDLEQRDLYRDVMLENYSNLVSLGCFISKPDVISLLEQGKEPWKVVRKGRRRYADLETRY
B14: DOMAIN_12734 (protein)
chain: PQKLVTFEDVAVYFTPTEWDGLSPAQRALYRDVMLENYGNVASLGFPILKPAVISQLEGGGELGIPSLLAAGVGSDPPGLW
modifications: Phyllostomus discolor
B15: DOMAIN_12769 (protein, listed as Macaca fascicularis)
chain: VKESVTFKDVAIDFTLEEWRLMDPTQRNLHKDVMLENYRNLVSLGLAVSKPDMISHLENGKGPWPKPATKNATRTKDISED
B16: DOMAIN_18137 (protein, listed as Monodelphis domestica)
chain: AQVLVTFQDVAVDFTQEEWRLLDPGQKELYKEVMLENVQNVLSLGLPVPREDWISHFDQGRAPWMLEGEGPSNSCLGRERR
B17: DOMAIN_12777 (protein, listed as Phascolarctos cinereus)
chain: WQESLTFKDVAVDFTQEEWGLLDHSQKRLYKEVMLENSQNLLSLGIPPLREDLISHLEEGEASWILDRKGPRKSCPDAETR
B18: DOMAIN_12801 (protein, listed as Sapajus apella)
chain: VHGSVTFRDVAIDFSQEEWECLQPAQKTLYRDVMLENYSHLISLGSSISKPDVITLLEQEKEPWMVRRKETNRWYPDLESK
B19: DOMAIN_12811 (protein, listed as Macaca fascicularis)
chain: CYQDSVTFDDVAVDFTQEEWTLLDPTQRSLYSDVMLENYKNLATVGGQIIKPSLISWLEQEESRTVRGGVLQGRKTQWRGT
B20: DOMAIN_12815 (protein, listed as Macaca fascicularis)
chain: FQGSVSFEDVTVGFSQEEWQHLDPSQRALYRDVMLENYSNLVSVGYCVHKPEVIFRLEQGEEPWRLEEEFPSQSFPEVWTA
B21: DOMAIN_12818 (protein, listed as Macaca fascicularis)
chain: AQESVTFEDVAVNFTNREWQSLTYAQRHLYKHVMLENYGNMVSLGFPFPKPPLISHLERGVEPCVQDPQDRESLSCSYPVS
B22: DOMAIN_12829 (protein, listed as Phascolarctos cinereus)
chain: VGHPVTFRDVAVDFSLEEWRCLSPAQRALYRDVMLENYENLVSVGLPVSKPTVISLLEKGEAPWMPQAGAPRGPCPDYLSW
B23: DOMAIN_12831 (protein, listed as Phascolarctos cinereus)
chain: AQELVTFQDVAVDFTEEEWGLLDHSQKELYKEVMLENAQNLLSLGLPVTREDLISFFQKGEAPWILEPKGPWNFCPDAVTR
B24: DOMAIN_12849 (protein)
chain: APVTFGDLAIYFSQEEWEWLSPIQKDLYEDVMLENYQNLVSLGLCFRRPNVITLLERGKAPWMVDPVKRRRGLDLGSKGET
modifications: Muntiacus muntjak
B25: DOMAIN_18216 (protein, listed as Physeter macrocephalus)
chain: RVVFEDVAVYFSQEEWGLLDEAQRHLYHAVMTENFALVTSLGCWHGAQYEEAPSEQSVSVGMSEVGTPKPDPSTKKAQPYE
B26: DOMAIN_12902 (protein, listed as Macaca fascicularis)
chain: RPESVTFEDVAVYFSENEWIGLGPAQRALYRDVMLENYGAVASLAFPFPKPALISQLERGEAPWCSVPWGALDGEDPRSIS
B27: DOMAIN_12941 (protein)
chain: CWGLLSFKDISMDFTWEEWQLLDSAQKYLYRDVILENYRNLVSVGYHGTKPDLIFKLEQGEEPWIRNAKISRPRCSEGWKE
modifications: Phyllostomus discolor

Test system: HBEGF locus
Assay type: cell-based, human
[1] = repressor domain in dXR, repression of the HBEGF gene, abundance of domain in library after vs before diphtheria toxin selection
[2] = high-throughput screen of dXR repression of the HBEGF gene, change in abundance of each domain in the library before and after diphtheria toxin selection

| Molecule | Log2 (fold change) [1] | Log2 (fold change) [2] |
| --- | --- | --- |
| B1 | 3.306 | – |
| B2 | 3.04 | – |
| B3 | 3.4169 | – |
| B4 | 3.3709 | – |
| B5 | 2.2098 | – |
| B6 | 3.6424 | – |
| B7 | – | 3.11 |
| B8 | 3.487 | – |
| B9 | 2.76 | – |
| B10 | 2.8029 | – |
| B11 | 2.9127 | – |
| B12 | 2.1195 | – |
| B13 | 3.1999 | – |
| B14 | 3.5207 | – |
| B15 | 2.0555 | – |
| B16 | – | 3.292 |
| B17 | 2.1778 | – |
| B18 | 2.0238 | – |
| B19 | 2.4278 | – |
| B20 | 2.7296 | – |
| B21 | 3.6211 | – |
| B22 | 3.3994 | – |
| B23 | 2.9845 | – |
| B24 | 4.1042 | – |
| B25 | – | 3.0602 |
| B26 | 3.3489 | – |
| B27 | 2.4012 | – |
